# Reference: the supplement of paper PMC8728848
# The list shows a part of the results.
# What was measured:
# Assay in all cases: glycan array binding signal (z-score within array); higher = stronger binding
# Conditions in all cases: glycan notation: IUPAC condensed, linker removed
# [1] = target: Neu5Ac(a2-6)Gal(b1-4)GlcNAc(b1-2)Man(a1-3)[GlcNAc(b1-4)][Neu5Ac(a2-6)Gal(b1-4)GlcNAc(b1-2)Man(a1-6)]Man(b1-4)GlcNAc(b1-4)GlcNAc
# Summary of the method: (§1)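 The binding signal is a Z-score computed within each array and averaged over linkers. Arrays of the same protein sequence at different concentrations or buffers were also averaged together. Data originate from 3228 arrays in the Consortium for Functional Glycomics database, kept only where the protein sequence was available.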
# [2] = target: Neu5Ac(a2-6)Gal(b1-4)GlcNAc(b1-2)Man(a1-3)[Man(a1-6)]Man(b1-4)GlcNAc(b1-4)GlcNAc
# Summary of the method: as §1
# [3] = target: Neu5Ac(a2-6)Gal(b1-4)GlcNAc(b1-2)Man(a1-3)[Neu5Ac(a2-3)Gal(b1-4)GlcNAc(b1-2)Man(a1-6)]Man(b1-4)GlcNAc(b1-4)GlcNAc
# Summary of the method: as §1
# [4] = target: Neu5Ac(a2-6)Gal(b1-4)GlcNAc(b1-2)Man(a1-3)[Neu5Ac(a2-6)Gal(b1-4)GlcNAc(b1-2)Man(a1-6)]Man(b1-4)GlcNAc(b1-4)GlcNAc
# Summary of the method: as §1
# [5] = target: Neu5Ac(a2-6)Gal(b1-4)GlcNAc(b1-2)Man(a1-3)[Neu5Ac(a2-6)Gal(b1-4)GlcNAc(b1-2)Man(a1-6)]Man(b1-4)GlcNAc(b1-4)[Fuc(a1-6)]GlcNAc
# Summary of the method: as §1
# [6] = target: Neu5Ac(a2-6)Gal(b1-4)GlcNAc(b1-2)Man(a1-6)Man(b1-4)GlcNAc(b1-4)GlcNAc
# Summary of the method: as §1
# [7] = target: Neu5Ac(a2-6)Gal(b1-4)GlcNAc(b1-2)Man(a1-6)[Gal(b1-4)GlcNAc(b1-2)Man(a1-3)]Man(b1-4)GlcNAc(b1-4)GlcNAc
# Summary of the method: as §1
# [8] = target: Neu5Ac(a2-6)Gal(b1-4)GlcNAc(b1-2)Man(a1-6)[GlcNAc(b1-2)Man(a1-3)]Man(b1-4)GlcNAc(b1-4)GlcNAc
# Summary of the method: as §1
# [9] = target: Neu5Ac(a2-6)Gal(b1-4)GlcNAc(b1-2)Man(a1-6)[Man(a1-3)]Man(b1-4)GlcNAc(b1-4)GlcNAc
# Summary of the method: as §1
# [10] = target: Neu5Ac(a2-6)Gal(b1-4)GlcNAc(b1-2)[Neu5Ac(a2-6)Gal(b1-4)GlcNAc(b1-4)]Man(a1-3)[GlcNAc(b1-4)][Neu5Ac(a2-6)Gal(b1-4)GlcNAc(b1-2)[Neu5Ac(a2-6)Gal(b1-4)GlcNAc(b1-6)]Man(a1-6)]Man(b1-4)GlcNAc(b1-4)GlcNAc
# Summary of the method: as §1
# [11] = target: Neu5Ac(a2-6)Gal(b1-4)GlcNAc(b1-2)[Neu5Ac(a2-6)Gal(b1-4)GlcNAc(b1-4)]Man(a1-3)[GlcNAc(b1-4)][Neu5Ac(a2-6)Gal(b1-4)GlcNAc(b1-4)Man(a1-6)]Man(b1-4)GlcNAc(b1-4)GlcNAc
# Summary of the method: as §1
# [12] = target: Neu5Ac(a2-6)Gal(b1-4)GlcNAc(b1-2)[Neu5Ac(a2-6)Gal(b1-4)GlcNAc(b1-6)]Man(a1-6)[Neu5Ac(a2-6)Gal(b1-4)GlcNAc(b1-2)Man(a1-3)][GlcNAc(b1-4)]Man(b1-4)GlcNAc(b1-4)GlcNAc
# Summary of the method: as §1
# [13] = target: Neu5Ac(a2-6)Gal(b1-4)GlcNAc(b1-3)Gal(b1-3)GlcNAc
# Summary of the method: as §1
# [14] = target: Neu5Ac(a2-6)Gal(b1-4)GlcNAc(b1-3)Gal(b1-4)GlcNAc
# Summary of the method: as §1
# [15] = target: Neu5Ac(a2-6)Gal(b1-4)GlcNAc(b1-3)Gal(b1-4)GlcNAc(b1-2)Man(a1-3)[Neu5Ac(a2-6)Gal(b1-4)GlcNAc(b1-3)Gal(b1-4)GlcNAc(b1-2)Man(a1-6)]GalNAc
# Summary of the method: as §1
# [16] = target: Neu5Ac(a2-6)Gal(b1-4)GlcNAc(b1-3)Gal(b1-4)GlcNAc(b1-3)Gal(b1-4)GlcNAc
# Summary of the method: as §1
# [17] = target: Neu5Ac(a2-6)Gal(b1-4)GlcNAc(b1-3)Gal(b1-4)GlcNAc(b1-3)Gal(b1-4)GlcNAc(b1-2)Man(a1-3)[Neu5Ac(a2-6)Gal(b1-4)GlcNAc(b1-3)Gal(b1-4)GlcNAc(b1-3)Gal(b1-4)GlcNAc(b1-2)Man(a1-6)]GalNAc
# Summary of the method: as §1
# [18] = target: Neu5Ac(a2-6)Gal(b1-4)GlcNAc(b1-3)Gal(b1-4)GlcNAc(b1-3)GalNAc
# Summary of the method: as §1
# [19] = target: Neu5Ac(a2-6)Gal(b1-4)GlcNAc(b1-3)Gal(b1-4)GlcNAc(b1-3)[Neu5Ac(a2-6)Gal(b1-4)GlcNAc(b1-3)Gal(b1-4)GlcNAc(b1-6)]GalNAc
# Summary of the method: as §1
# [20] = target: Neu5Ac(a2-6)Gal(b1-4)GlcNAc(b1-3)Gal(b1-4)GlcNAc(b1-6)[Gal(b1-3)]GalNAc
# Summary of the method: as §1
# [21] = target: Neu5Ac(a2-6)Gal(b1-4)GlcNAc(b1-3)Gal(b1-4)[Fuc(a1-3)]GlcNAc(b1-3)Gal(b1-4)[Fuc(a1-3)]GlcNAc
# Summary of the method: as §1
# [22] = target: Neu5Ac(a2-6)Gal(b1-4)GlcNAc(b1-3)GalNAc
# Summary of the method: as §1
# [23] = target: Neu5Ac(a2-6)Gal(b1-4)GlcNAc(b1-3)[Neu5Ac(a2-6)Gal(b1-4)GlcNAc(b1-6)]GalNAc
# Summary of the method: as §1
# [24] = target: Neu5Ac(a2-6)Gal(b1-4)GlcNAc(b1-6)GalNAc
# Summary of the method: as §1
# [25] = target: Neu5Ac(a2-6)Gal(b1-4)GlcNAc(b1-6)[Gal(b1-3)GlcNAc(b1-3)]Gal(b1-4)Glc
# Summary of the method: as §1
# [26] = target: Neu5Ac(a2-6)Gal(b1-4)GlcNAc(b1-6)[Gal(b1-3)]GalNAc
# Summary of the method: as §1
# [27] = target: Neu5Ac(a2-6)Gal(b1-4)GlcNAc6S
# Summary of the method: as §1
# Neu5Ac(a2-6)GalNAc = target: Neu5Ac(a2-6)GalNAc
# Summary of the method: as §1
# [28] = target: Neu5Ac(a2-6)GalNAc(b1-4)GlcNAc
# Summary of the method: as §1
# [29] = target: Neu5Ac(a2-6)GalNAc(b1-4)GlcNAc6S
# Summary of the method: as §1
# [30] = target: Neu5Ac(a2-6)GlcNAc(b1-4)GlcNAc
# Summary of the method: as §1
binder,measurement,setting,value
"CFEM-SCL (Saccharomyces cerevisiae), O13547 (protein) MRATTLLSSVVSLALLSKEVLATPPACLLACVAQVGKSSSTCDSLNQVTCYCEHENSAVKKCLDSICPNNDADAAYSAFKSSCSEQNASLGD",glycan array binding signal (z-score),[1],-0.223
same,glycan array binding signal (z-score),[2],-0.31
same,glycan array binding signal (z-score),[3],-0.351
same,glycan array binding signal (z-score),[4],-0.198
same,glycan array binding signal (z-score),[5],-0.246
same,glycan array binding signal (z-score),[6],-0.353
same,glycan array binding signal (z-score),[7],-0.165
same,glycan array binding signal (z-score),[8],-0.279
same,glycan array binding signal (z-score),[9],-0.271
same,glycan array binding signal (z-score),[10],-0.247
same,glycan array binding signal (z-score),[11],-0.268
same,glycan array binding signal (z-score),[12],-0.314
same,glycan array binding signal (z-score),[13],-0.289
same,glycan array binding signal (z-score),[14],-0.309
same,glycan array binding signal (z-score),[15],-0.057
same,glycan array binding signal (z-score),[16],-0.319
same,glycan array binding signal (z-score),[17],1.21
same,glycan array binding signal (z-score),[18],-0.313
same,glycan array binding signal (z-score),[19],-0.146
same,glycan array binding signal (z-score),[20],0.198
same,glycan array binding signal (z-score),[21],-0.25
same,glycan array binding signal (z-score),[22],-0.011
same,glycan array binding signal (z-score),[23],-0.265
same,glycan array binding signal (z-score),[24],-0.244
same,glycan array binding signal (z-score),[25],-0.309
same,glycan array binding signal (z-score),[26],0.923
same,glycan array binding signal (z-score),[27],-0.184
same,glycan array binding signal (z-score),Neu5Ac(a2-6)GalNAc,-0.281
same,glycan array binding signal (z-score),[28],-0.277
same,glycan array binding signal (z-score),[29],-0.267
same,glycan array binding signal (z-score),[30],-0.136
